According to the supplement of paper PMC10441789:
This is one part of the list. Antibody binding of pooled human sera (four to six donors per pool; dilution not stated) to peptides of the Trypanosoma cruzi antigen TSSA on microarrays. Quantile-normalised fluorescence in arbitrary units, mean of duplicate arrays; higher = more binding. No active / inactive call. The uninfected pools are read here as the healthy donors of the same country. The strongest signals lie near the top of the scale (about 60,000).

How the values were obtained:
Test in all cases: antibody binding signal (normalised fluorescence) (arbitrary fluorescence units); higher = stronger serum antibody binding to peptide
[1] = test system: pooled sera of chronic Chagas disease patients, Argentina
Protocol: (§1)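 Microarray of 15-residue peptides over residues 30-55 of Trypanosoma cruzi TSSAII, each with 1 to 10 substitutions at naturally variable positions, probed with one serum pool per country.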

[2] = test system: pooled sera of chronic Chagas disease patients, Bolivia
Protocol: as §1

[3] = test system: pooled sera of chronic Chagas disease patients, Brazil
Protocol: as §1

[4] = test system: pooled sera of chronic Chagas disease patients, Colombia
Protocol: as §1

[5] = test system: pooled sera of chronic Chagas disease patients, Mexico
Protocol: as §1

[6] = test system: pooled sera of chronic Chagas disease patients, USA
Protocol: as §1

[7] = test system: pooled sera of uninfected people, Argentina
Protocol: as §1

[8] = test system: pooled sera of uninfected people, Bolivia
Protocol: as §1

[9] = test system: pooled sera of uninfected people, Brazil
Protocol: as §1

[10] = test system: pooled sera of uninfected people, Colombia
Protocol: as §1

[11] = test system: pooled sera of uninfected people, Mexico
Protocol: as §1

[12] = test system: pooled sera of uninfected people, USA
Protocol: as §1

Sequence	antibody binding signal [1]	antibody binding signal [2]	antibody binding signal [3]	antibody binding signal [4]	antibody binding signal [5]	antibody binding signal [6]	antibody binding signal [7]	antibody binding signal [8]	antibody binding signal [9]	antibody binding signal [10]	antibody binding signal [11]	antibody binding signal [12]
SGKEKKAAAGGTPSQ	3090	812	1970	6190	5320	5330	147	114	445	120	84.1	108
PSGKDNKPATGEAPS	50000	37200	47600	1250	1690	43600	1160	1900	384	235	380	152
PPSGKDKKTAAGEAP	968	995	1060	1360	34800	2340	295	614	95.3	393	93.8	99.3
PSGKDNKTAAGGTPS	3450	672	3270	9270	7200	4740	270	143	202	139	331	140
KDNKAATGGTPSQSG	285	337	311	280	215	188	248	604	195	175	99.4	111
ENKAATGETPSPPGA	3180	5290	16000	239	182	13500	153	230	172	123	138	768
ENKPATGGTPSPSGA	708	3950	2990	352	756	598	391	710	492	688	215	282
TDKKAAAGEAPSQSG	1040	10400	9980	436	267	9490	102	247	150	116	155	179
TENKPAAGETPSQPG	42500	4180	38000	314	400	4970	155	950	217	286	137	156
KDNKTAAGEAPSPSG	810	232	707	2050	267	4350	474	161	172	273	87.8	174
KTAAGGAPSQPGASS	152	199	1370	6300	807	185	230	134	129	99.4	95.6	137
ISTPPSGTEKKTAAG	37400	3770	29400	412	10300	5280	906	299	149	143	100	157
DNKPATGGAPSQPGA	716	14200	31400	357	399	2560	333	973	560	356	509	274
SGKEKKAATGETPSQ	4080	686	9450	1470	3800	10400	412	242	95.1	280	82.8	166
TDNKTAAGGTPSPSG	1410	266	308	4470	355	1350	188	266	1310	365	1240	234
GTDNKPAAGGAPSQS	2200	474	43800	2300	344	621	186	636	576	228	578	163
TSSTPPSGKENKAAA	17700	3960	9670	914	3650	2520	3600	1130	118	839	126	453
GTENKPAAGGTPSPS	44900	1770	4410	1560	1600	578	413	2210	1450	773	315	160
GTDKKPAAGGAPSPS	416	343	1080	9520	567	1010	218	298	201	188	526	212
KKPATGGTPSPSGAS	372	811	353	971	309	271	313	550	277	143	128	316
GTDKKAATGGTPSQS	715	525	275	3170	1020	1210	310	186	537	651	198	150
TPPSGKENKAAAGET	10200	9930	2480	488	1920	3400	2760	1960	209	1090	259	247
GKDKKPAAGGAPSQS	327	196	167	1530	537	325	109	77.1	134	97	485	104
TISTPPSGTDNKPAT	42200	43200	47600	5010	10700	27000	1330	720	524	297	1010	524
GKDNKPAAGGAPSPP	1740	373	2190	2670	4010	2250	265	512	93.4	122	133	135
